Each structure is given as a SMILES string. This is one part of the list.

The experiment deals with T1, C. trachomatis L2/434/Bu expressing GFP (CTL2-GFP).
T1 construct: L2/434/Bu GFP intracellular growth in HeLa cells
On the set-up: species or system HeLa; C. trachomatis total inclusion area by high-content imaging, normalised to DMSO. The conditions noted are these: total inclusion area; 28.5 h, 10 µM; inhibitor. The method, boiled down: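 Post-fluorescence-read fixation, DNA staining with Hoechst and high-content imaging; GFP inclusion area and number per well, and nuclei counts, used as proxies for bacterial growth and host viability.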
For `Cc1cc2nnn(C[C@@H](C)NC(=O)c3ccco3)c2cc1C` [CBK282366], the “% of control remaining” value was determined as 89.7925.
`CC(=O)N(C)c1nc(-c2ccccc2)ccc1C(=O)Nc1ccc2c(c1)OCO2` [CBK106342]: the “% of control remaining” value was determined as 97.2633.
For the compound `O=C(Cc1c(Cl)cccc1Cl)Nc1ccc2[nH]ccc2c1` [CBK159664], the “% of control remaining” value is reported as 100.411.
With `CCN(CC)C(=O)CN1CCN(c2nccnc2OCc2ccc(Cl)c(Cl)c2)CC1` [CBK083081T], the “% of control remaining” value is given as 89.1647.
With `CC(=O)c1ccc(-c2nccnc2NCc2cccc([N+](=O)[O-])c2)s1` [CBK037509], the “% of control remaining” value is recorded as 77.4505.
For `Cc1cc(C(=O)NC(C)C2CC3CCC2C3)c2cnn(C(C)C)c2n1` (stereo not shown) [CBK281652], the “% of control remaining” value is on record as 86.7233.
The result for `CN1CCN(CC(=O)Nc2ccc(OCc3ccccc3)cc2)CC1` [CBK264844] reads 98.0161; that for `COc1cc(/C=N/Nc2nonc2N)cc(OC)c1OC` [CBK025758], 68.5443; that for `COc1cc(CN2CCCC3(CCN(C(=O)c4cc(F)c(F)cc4F)C3)C2)cc(OC)c1OC` (stereo not shown) [CBK131988], 77.6609.
Turning to `CC(C)(C)OC(=O)N1CCC(N2CCc3cc(-c4ccc(S(C)(=O)=O)cc4)ccc3C2)CC1` [CBK165796], the “% of control remaining” value was 61.0961.
Consider `CN(C)c1ccc(-c2nccnc2NS(=O)(=O)c2ccc(C(F)(F)F)cc2)cc1` [CBK050802], for which the “% of control remaining” value was 86.2696.
On to `CC(C)(C)n1cc(C(=O)N2CCNCC2c2cccc(Cl)c2)cn1` (stereo not shown) [CBK304112], for which the “% of control remaining” value turned out to be 56.0284.
As to `CSc1ccc([C@H]2[C@H](C(=O)O)CC(=O)N2Cc2ccccc2)cc1` [CBK286934], the “% of control remaining” value came out at 88.6354.
For the compound `CC(=O)c1ccc(-c2nccnc2N2CCN(c3ccncc3)CC2)s1` [CBK037015], the “% of control remaining” value was determined as 108.659.
To `CCCc1nn(Cc2ccccn2)c(=O)c2cc3ccsc3n12` [CBK284229] belongs 67.9532; to `CC[C@H]1C[N@@]2CC[C@H]1C[C@@H]2CNS(=O)(=O)c1cccc2cccnc12` [CBK288747], 109.372; to `O=C(Nc1ccccc1Br)C1CCCC1` [CBK092059], 61.9487.
The result for `CSCCCNC(=O)c1ccc2nc[nH]c2c1` [CBK153314] reads 72.0219.
`COCc1cc(-c2ccc(C(=O)N3CCN(C)CC3)nc2)ccc1OCC1CCN(C(=O)OC(C)(C)C)CC1` [CBK174511]: the “% of control remaining” value amounted to 62.1024.
With `CCCc1cc(C(=O)Nc2nccs2)cs1` [CBK288212], the “% of control remaining” value is reported as 64.9613.
Consider `Cc1c(-c2ccc(Cl)cc2Cl)nc2ccccc2c1C(=O)NCCC(c1ccccc1)c1ccccc1` [CBK262634], for which the “% of control remaining” value amounted to 104.513.
For the compound `Fc1ccc(-n2nnnc2SCc2ccc(Cl)cc2)cc1Cl` [CBK102075], the “% of control remaining” value is recorded as 66.3834.
On to `COc1ccc(CCC(=O)Nc2cccc(-c3ccc(OC4CCNCC4)cc3)c2)cc1OC` [CBK131925T], for which the “% of control remaining” value is 89.9226.
Consider `O=C(c1ccc(NCCCCO)nc1)N1CCC(N2CCOCC2)CC1` [CBK306521], for which the “% of control remaining” value worked out at 69.2504.
For `O=C(NC(=S)Nc1ccc2[nH]c(=O)[nH]c2c1)c1ccc(F)cc1` [CBK263986], the “% of control remaining” value amounted to 83.8017.
With `C=CCC1(CC=C)CCN1C(=O)c1cc(-c2c(C)nn(C)c2C)n[nH]1` [CBK282575], the “% of control remaining” value came to 108.962.
The result for `Cc1ccc(S(=O)(=O)N(CC(=O)Nc2ccccc2C)Cc2ccc(Cl)c(Cl)c2)cc1` [CBK264735] reads 109.29; that for `OCC[C@H]1CN2CCCC2CN1Cc1cccn1-c1ccccc1F` (stereo partly shown) [CBK282977], 91.298.
Turning to `COc1ccccc1CN(Cc1cccnc1)C(=O)NC(C)C(C)C` (stereo not shown) [CBK307672], the “% of control remaining” value is listed as 82.8128.
For `COc1ccc(-c2nnc(SCc3cc(=O)oc4cc(C)ccc34)n2CC(C)C)cc1` [CBK297518], the “% of control remaining” value amounted to 106.954.
Regarding `O=C(COc1ccccc1)Nc1nn(Cc2ccc(S(=O)(=O)N3CCCC3)cc2)c2ccccc12` [CBK061594], the “% of control remaining” value is listed as 104.719.
The result for `C=CCN1C(=O)C2(CC(=O)N(CCCN(C)S(C)(=O)=O)C2=O)c2cc(F)ccc21` (stereo not shown) [CBK075319] reads 99.7747; that for `C[C@]12CN(C(=O)C3CCCC3)C[C@H]1NC(=O)c1ccccc1C2=O` [CBK281672], 90.25.
On to `CC1CCCN(C(=O)CC(NC(N)=O)c2cccc(Br)c2)CC1` (stereo not shown) [CBK305804], for which the “% of control remaining” value was 62.5952.
To `O=C(O)CCc1ccc(-c2cccs2)n1NC(=O)c1ccc(Cl)cc1` [CBK264738] belongs 103.148; to `O=C1CCCC2=C1C(c1ccccc1Cl)n1nnnc1N2` (stereo not shown) [CBK288151], 111.68.
In the case of `O=C(Nc1ccccc1)c1ccc2c(c1)C(=O)N(c1cccc(N3C(=O)c4ccc(C(=O)Nc5ccccc5)cc4C3=O)n1)C2=O` [CBK261197], the “% of control remaining” value stood at 103.093.
With `Fc1cccc(SCc2ccccc2)c1` [CBK002912], the “% of control remaining” value is 77.4647.
Regarding `COC(=O)c1cnn(-c2cc(Oc3ccccc3C)ncn2)c1N` [CBK098668], the “% of control remaining” value was 75.8032.
Turning to `O=C(NCCN1CCC(O)(c2ccc(F)cc2)CC1)c1ccco1` [CBK283166], the “% of control remaining” value is given as 72.2841.
As to `NS(=O)(=O)c1ccc(C(=O)N2CCC3(CCN(C(=O)c4cc(F)c(F)cc4F)C3)C2)cc1` (stereo not shown) [CBK131385], the “% of control remaining” value is 117.308.
`CC(C)(C)Cc1nnc(N)s1` [CBK050161]: the “% of control remaining” value is on record as 88.2929.
In the case of `C#CCNS(=O)(=O)c1cccc(C(=O)NC2CCN(CCOC)CC2)c1` [CBK305714], the “% of control remaining” value stood at 67.7832.
The result for `N=C(N)NC1=NC(=O)C(CC(=O)Nc2ccc(Oc3ccccc3)cc2)S1` (stereo not shown) [CBK300482] reads 99.9932; that for `Cc1cccn2c(CN3CC(O)C3)c(C(=O)N3CCOCC3)nc12` [CBK306857], 94.7.
As for `CC(=O)c1ccc(C(=O)N(C)Cc2ccc(F)cc2)s1` [CBK296660], the “% of control remaining” value was 79.8466.
Regarding `Cc1noc(C)c1NC(=O)c1cnccc1C(F)(F)F` [CBK200306], the “% of control remaining” value is on record as 86.772.
On to `CS(=O)(=O)N1CCCc2cc(-c3csc(N4CCCC4)n3)ccc21` [CBK306093], for which the “% of control remaining” value is listed as 133.35.
Regarding `CN(CC(=O)Nc1cccnc1N1CCNCC1)C(=O)c1ccccc1` [CBK028264T], the “% of control remaining” value worked out at 103.423.
For the compound `Cc1cc(NC(=O)c2nn(-c3ncccn3)c3ccccc23)n(C)n1` [CBK048505], the “% of control remaining” value was 115.387.
On to `CCCS(=O)(=O)Nc1nccnc1N1CCN(c2ccc3c(c2)OCO3)CC1` [CBK048824], for which the “% of control remaining” value was determined as 97.2501.
To `COc1cc(C=O)ccc1OC(=O)c1nsc(Cl)c1Cl` [CBK266619] belongs 116.125.
On to `CN(C)CCCNC(=O)c1cnc2cc(Cl)ccc2c1O` [CBK107354], for which the “% of control remaining” value amounted to 98.8708.
On to `CC(C)(C)OC(=O)NCCNCc1ccccc1C(F)(F)F` [CBK056695], for which the “% of control remaining” value came out at 93.8478.
With `CCN(CC)C(=O)CN1C(=O)[C@H]2CCCN2C(=O)c2ccccc21` [CBK286319], the “% of control remaining” value came to 68.0021.
In the case of `O=C(COc1ccc(C(=O)c2ccc(F)cc2)cc1)c1ccc2c(c1)OCCO2` [CBK297536], the “% of control remaining” value is given as 102.409.
Take `CN1CCC(N2CCN(C(=O)NCC(c3ccccc3)c3ccccc3)CC2)CC1` [CBK156096]: the “% of control remaining” value is listed as 86.0797.
Turning to `COCOc1ccc(-c2nc(-c3cnc(OC)nc3OC)cnc2N)cc1` [CBK063991], the “% of control remaining” value stood at 92.8842.
On to `O=S(=O)(Nc1ccccc1OC(F)(F)F)c1ccc(N2CCNCC2)c2ccccc12` [CBK003933C], for which the “% of control remaining” value was 86.5432.
`Cc1ccc(C(=O)NCCN2CCOCC2)c(NCCCn2ccnc2)n1` [CBK076371]: the “% of control remaining” value was 98.6956.
With `O=C(NCc1nnc(-c2cccs2)o1)c1ccccc1-c1ccccc1` [CBK286293], the “% of control remaining” value came out at 92.0457.
The result for `CCC(Oc1ccc(C)cc1)C(=O)Nc1ccccc1C(=O)N1CCOCC1` (stereo not shown) [CBK270132] reads 129.343.
On to `CCC(=O)N1CCC(NC(=O)c2cnc(-c3ccncc3)s2)C1` (stereo not shown) [CBK305550], for which the “% of control remaining” value is 69.6587.
On to `O=C(O)C(Cc1ccccc1)n1cnnn1` (stereo not shown) [CBK021162], for which the “% of control remaining” value was 89.2948.
Take `OCc1cc(Cl)c(Cl)c(CO)c1O` [CBK269397]: the “% of control remaining” value is 102.688.
Regarding `COc1ccc(CN2CCCN(C(=O)c3ccc(C#N)cc3)CC2)cc1` [CBK305273], the “% of control remaining” value is on record as 44.7363.
Consider `COc1ccccc1-c1cnc(N)c(N[C@@H](CO)C(C)C)n1` [CBK063749], for which the “% of control remaining” value was determined as 125.442.
With `Cc1ccc2nc(N3CCCC(O)C3)c(CN3CCC(F)CC3)cc2c1` (stereo not shown) [CBK307016], the “% of control remaining” value is 80.5715.
For the compound `CN(C)CCC(c1ccccc1)n1cncc1-c1cnn(C)c1` (stereo not shown) [CBK281742], the “% of control remaining” value is reported as 109.118.
To `c1ccc(Oc2ccc(Nc3cccc(-c4ccc5ccccc5c4)n3)cc2)cc1` [CBK037636] belongs 89.1916; to `COc1ccc(/N=c2/cc(C)[nH]c3ncnn23)cc1` [CBK287893], 94.9659.
To `CN(C)S(=O)(=O)c1ccc(Cl)c(C(=O)Nc2ccc(C(=O)O)cc2)c1` [CBK265728] belongs 125.887.
To `COc1ccc(-c2noc([C@@H]3C[C@H](NS(=O)(=O)Cc4ccccc4)CN3C)n2)cc1` [CBK288863] belongs 117.139; to `CN(CCN1CCCCC1)C(=O)c1c2c(nn1C)CCCC2` [CBK281905], 95.8197.
For the compound `COc1cccc(C(=O)Nc2cc(C)c3c(=O)oc4ccccc4c3n2)c1OC` [CBK287437], the “% of control remaining” value is 119.133.
As to `CC(=O)Nc1cccc(-c2cncc(-c3ccc(O)cc3)n2)c1` [CBK123795], the “% of control remaining” value is recorded as 77.3545.
On to `CCn1cncc1C(=O)NCC1(c2ccccc2F)CCOCC1` [CBK281555], for which the “% of control remaining” value came to 95.4563.
On to `c1csc(CCN2CCC3(CC2)OCCc2c3[nH]c3ccccc23)c1` [CBK040156], for which the “% of control remaining” value is recorded as 66.5372.
The result for `COc1ccc(Nc2nc(N)nc(CSc3nncn3C)n2)cc1` [CBK266730] reads 124.278.

The record behind these values is paper PMC12040169 (PLOS Biology, 2025).
